These results are taken from patent US20240360122A1, “POLYMORPHIC FORMS AND SALTS OF A GLP-1R AGONIST” (Terns (Suzhou) Biotechnology Co., Ltd., priority 2023, published 2024).

A word on the Solubility: it is how much of the substance goes into solution per volume. A high value points to a readily soluble substance.

Values after ≈ are worked out from the molar mass of the structure shown. Structures can show the parent of a compound that is named as a salt. Further values from the same series stand in other lists.

What all share (assay type): physicochemical
Data set [1] can be described thus: Solubility studies of Compound 1 meglumine salt in DMSO / ethyl acetate. As to conditions: dimethylsulfoxide (DMSO) at 50° C.
Data set [2] is described as follows: Kinetic solubility in water and bio-relevant media (SGF, FaSSIF, FeSSIF) at 37° C. To be noted: calculated by freeform. As to the method:
Add 4 mL of medium (H2O, SGF, FaSSIF and FeSSIF). • Rolled at 37° C. (˜25 rpm). Sampling at 1, 2, 4 and 24 hrs. • At each time-point, sampled 0.8 mL of solution or suspension into a centrifuge tube prior to centrifugation (12000 rpm, 37° C., 5 min) and filtration through 0.45 μm PTFE membrane. • Tested pH and concentration for the filtrate. Analyze residual solids by XRPD.
0.1 g of NaCl and 0.05 g of Triton X-100 were weighed into a 50-mL volumetric flask. Purified water was added to dissolve the solid. 67.5 μL HCl (38%, 12M) was added after the solid was dissolved completely. pH was then adjusted to 1.8 using HCl (1 M) or NaOH (1 M). Purified water was added to the volume.
0.17 g of anhydrous NaH2PO4, 0.021 g of NaOH and 0.31 g of NaCl were weighed into a 50-mL volumetric flask. ˜48 mL purified water was added to dissolve the solid. pH was adjusted to 6.5 using 1M HCl or 1M NaOH. Purified water was then added to the volume. 0.11 g of SIF powder was added into the volumetric flask.
0.41 mL of acetic acid, 0.20 g of NaOH and 0.59 g of NaCl were weighed into a 50-mL volumetric flask. ˜48 mL purified water was added to dissolve the solid. pH was adjusted to 5.0 using 1M HCl or 1M NaOH. Purified water was then added to the volume. 0.56 g of SIF powder was added into the volumetric flask.

The nature of data set [3]: pH solubility in pH 1.0-8.0 buffers at RT. To be noted: LOQ = 0.0001 mg/mL. As to the method:
The procedures were listed below:
1. […] Add 2 ml, of the corresponding medium.
2. Mixed well and stirred at RT (1000 rpm). Check the pH and adjust it back to the target pH after dosing.
3. Sampled after 2 hours and 24 hours. The supernatant was isolated by centrifugation (12000 rpm, 5 min) and filtration (0.22 μm, PTFE) for pH and HPLC test.

As for `N#Cc1ccc(COc2cccc(C3CCN(Cc4nc5ccc(C(=O)O)cc5n4Cc4cncs4)CC3)n2)c(F)c1` [Compound 1 meglumine salt], the “solubility in DMSO” value in data set [1] is listed as “high solubility”.

Regarding `N#Cc1ccc(COc2cccc(C3CCN(Cc4nc5ccc(C(=O)O)cc5n4Cc4cncs4)CC3)n2)c(F)c1` [Freeform Type C], the “S: Solubility” value in data set [2] (FeSSIF, 1 hr) was 6 µg/mL; in data set [2] (FeSSIF, 2 hrs), 6 µg/mL; in data set [2] (FeSSIF, 4 hrs), 6 µg/mL. The Solubility in data set [3] (pH 1.0 buffer, 2 Hours) is 180 µg/mL (≈ 309 µM); in data set [3] (pH 2.0 buffer, 2 Hours) it was 34 µg/mL (≈ 58.4 µM); in data set [3] (pH 3.5 buffer, 2 Hours) it was 16 µg/mL (≈ 27.5 µM); in data set [3] (pH 3.5 buffer, 24 Hours) it was 0.3 µg/mL (≈ 0.515 µM); in data set [3] (pH 4.5 buffer, 24 Hours), “<LOQ”; in data set [3] (pH 5.5 buffer, 2 Hours) it was “<LOQ”. The Solubility entry in data set [3] (pH 5.5 buffer, 24 Hours) is “<LOQ”; in data set [3] (pH 6.8 buffer, 2 Hours) it was 0.1 µg/mL (≈ 0.172 µM); in data set [3] (pH 6.8 buffer, 24 Hours), 0.3 µg/mL (≈ 0.515 µM); in data set [3] (pH 8.0 buffer, 2 Hours), 6.6 µg/mL (≈ 11.3 µM); in data set [3] (pH 8.0 buffer, 24 Hours), 6.7 µg/mL (≈ 11.5 µM).

Consider `N#Cc1ccc(COc2cccc(C3CCN(Cc4nc5ccc(C(=O)O)cc5n4Cc4cncs4)CC3)n2)c(F)c1` [Fumarate Type A], for which the “S: Solubility” value is 4 µg/mL in data set [2] (FaSSIF, 1 hr); 4 µg/mL in data set [2] (FaSSIF, 2 hrs); 7 µg/mL in data set [2] (FaSSIF, 4 hrs); 3 µg/mL in data set [2] (FaSSIF, 24 hrs); 10 µg/mL in data set [2] (FeSSIF, 1 hr); 9 µg/mL in data set [2] (FeSSIF, 2 hrs). Further, the “S: Solubility” value in data set [2] (FeSSIF, 4 hrs) is 9 µg/mL; in data set [2] (FeSSIF, 24 hrs), 20 µg/mL; in data set [2] (H2O, 1 hr), 3 µg/mL; in data set [2] (H2O, 2 hrs) it was 3 µg/mL; in data set [2] (H2O, 4 hrs), 2 µg/mL; in data set [2] (H2O, 24 hrs), 3 µg/mL. The “S: Solubility” value is 46 µg/mL in data set [2] (SGF, 1 hr); 44 µg/mL in data set [2] (SGF, 2 hrs); 43 µg/mL in data set [2] (SGF, 4 hrs); 48 µg/mL in data set [2] (SGF, 24 hrs).

On to `N#Cc1ccc(COc2cccc(C3CCN(Cc4nc5ccc(C(=O)O)cc5n4Cc4cncs4)CC3)n2)c(F)c1` [Meglumine salt Type A], for which the Solubility is 1300 µg/mL in data set [3] (pH 1.0 buffer, 2 Hours); 150 µg/mL in data set [3] (pH 1.0 buffer, 24 Hours); 200 µg/mL in data set [3] (pH 2.0 buffer, 2 Hours); 16 µg/mL in data set [3] (pH 2.0 buffer, 24 Hours); 7.5 µg/mL in data set [3] (pH 3.5 buffer, 24 Hours); “<LOQ*” in data set [3] (pH 5.5 buffer, 24 Hours). The Solubility in data set [3] (pH 6.8 buffer, 2 Hours) turned out to be 95 µg/mL; in data set [3] (pH 6.8 buffer, 24 Hours) it was 190 µg/mL; in data set [3] (pH 8.0 buffer, 2 Hours) it was 640 µg/mL; in data set [3] (pH 8.0 buffer, 24 Hours), 1300 µg/mL.
